Results as given in the RNAGym collection of RNA variant scans (doi:10.1101/gad.245936.114).
Variants at the floor of the assay are shown more often than the library holds them.

B1: tRNA (parent)
chain: CUCUCGGUAGCCAAGUUGGUUUAAGGCGCAAGACUUUAAUUUAUCACUACGAAAUCUUGAGAUCGGGCGUUCGACUCGCCCCCGGGAGAUUUUUUCCUCGAGCAA

Variants of: B1
Assay: nonsense suppression (GFP-seq) (ratio to wild type); higher = more function; SUP4oc tRNA, yeast GFP reporter sort-seq
How it was run: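 To measure nonsense suppression, tRNA variants from a library carrying ~3% random mutations were integrated into the yeast genome alongside RFP and a GFP ochre reporter under galactose control. Growth took place in raffinose/galactose medium supplemented with 80 mg/L adenine, followed by sorting into GFP/RFP bins and Illumina sequencing of each bin (phred ≥30). For each variant with ≥100 reads and ≥30 cells, the bin median GFP/RFP values were weighted by its estimated cell share per bin and referenced to the unmutated parent tRNA.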

Variant	nonsense suppression
U4A U17A G61C	≤ 0.026
U4A U17C G28C U35A C79A C82A	≤ 0.026
U4A U17G G69A G78U	≤ 0.026
U4A U20C A31U U71G C80A	≤ 0.026
U4A U20G G32C	≤ 0.026
U4A U21A C68G	≤ 0.026
U4A U21A G66U	≤ 0.026
U4A U21G C79U	≤ 0.026
U4A U35G U57A	≤ 0.026
U4A U57C A62C A74G	≤ 0.026
U4A U57G	≤ 0.026
U4A U58A	≤ 0.026
U4A U70C	≤ 0.026
U4A U76A A87G	≤ 0.026
U4C A9C	1.02
U4C A9C C82A	≤ 0.026
U4C A9C G65C C82U	≤ 0.026
U4C A9G A13G U76C	0.202
U4C A9G G10A U20A	≤ 0.026
U4C A9G G15A A30U	0.0449
U4C A9G U58A	≤ 0.026
U4C A9U	1.07
U4C A9U A54U G69A C81G	≤ 0.026
U4C A9U G25U A31C	≤ 0.026

Variant	nonsense suppression
U4C A13C	1.05
U4C A13G	0.774
U4C A13G A14U G25U C29A A33G	≤ 0.026
U4C A14C U57C A62U C68A	≤ 0.026
U4C A14G G61A U71A	≤ 0.026
U4C A23C G25U U71G G86U	≤ 0.026
U4C A23G A33G G67A	≤ 0.026
U4C A23G A87C	≤ 0.026
U4C A23U G59U G61C C68U	≤ 0.026
U4C A23U U55A	≤ 0.026
U4C A24C	1.06
U4C A24C U55G A62C U71A U76A	≤ 0.026
U4C A24G A54G G67C	≤ 0.026
U4C A24G G66C C68U	≤ 0.026
U4C A24G U55A	≤ 0.026
U4C A24U	0.84
U4C A24U A30G U57A G66A C75A	≤ 0.026
U4C A31G G65A	≤ 0.026
U4C A31U	1.04
U4C A31U U57G G88U	≤ 0.026
U4C A33G C34U G67U C80U C82A	≤ 0.026
U4C A60C	1.04
U4C A62C	≤ 0.026
U4C A74C G85U	≤ 0.026

Variant	nonsense suppression
U4C A74G C80A	≤ 0.026
U4C A89G	≤ 0.026
U4C C5A U17C G28C U35A C79A C82A	≤ 0.026
U4C C5G A14C A31U	≤ 0.026
U4C C11A	≤ 0.026
U4C C11A U63C	≤ 0.026
U4C C11G A13G G26U	≤ 0.026
U4C C11G C12U U57C	≤ 0.026
U4C C11U C34G C82U	≤ 0.026
U4C C12A A14U G25C	≤ 0.026
U4C C12G U55A G73C G85C	≤ 0.026
U4C C12G U55G G86U	≤ 0.026
U4C C27U	0.792
U4C C27U G61A	0.205
U4C C27U G67A U71G	≤ 0.026
U4C C34A A54U	≤ 0.026
U4C C64G	≤ 0.026
U4C C64U G85C	≤ 0.026
U4C C68U U76C	1.13
U4C C72A	≤ 0.026
U4C C77G	≤ 0.026
U4C C82A A89G	≤ 0.026
U4C C83U	1.17
U4C G6A A23G	≤ 0.026

Variant	nonsense suppression
U4C G6U	0.959
U4C G7A C27G	≤ 0.026
U4C G7C G19U U57G	≤ 0.026
U4C G7C U8A A33C U57G	≤ 0.026
U4C G7U	0.202
U4C G7U A31U C34A U58A G86C	≤ 0.026
U4C G7U U8C G69C	≤ 0.026
U4C G10A C34A G65A U70C	≤ 0.026
U4C G10U C12A U76C	≤ 0.026
U4C G15A	0.746
U4C G15C G19U U21C C29G A62C	≤ 0.026
U4C G15U	≤ 0.026
U4C G15U U17G U57A	≤ 0.026
U4C G18A C72G	≤ 0.026
U4C G18U	≤ 0.026
U4C G18U A31C C77G	≤ 0.026
U4C G19A A24U G66A A87G	≤ 0.026
U4C G19C	≤ 0.026
U4C G25A	0.162
U4C G25C	0.723
U4C G25C G59A C80A	≤ 0.026
U4C G25U C56U U63G	≤ 0.026
U4C G25U C64G G67C	≤ 0.026
U4C G26U C34G U35A C82A	≤ 0.026

Variant	nonsense suppression
U4C G28C C79G	≤ 0.026
U4C G28U	≤ 0.026
U4C G32C U35A	≤ 0.026
U4C G61C	0.86
U4C G61U C79G A89G	≤ 0.026
U4C G66A A89U	≤ 0.026
U4C G66U G67C	≤ 0.026
U4C G73A	1.04
U4C G85C	≤ 0.026
U4C G86C	0.162
U4C U8A U71A	≤ 0.026
U4C U8C	≤ 0.026
U4C U16A U58G G67U U76A	≤ 0.026
U4C U16C A31U	0.97
U4C U16G G18U U20C C56G	≤ 0.026
U4C U17C	1.04
U4C U17C A23U	≤ 0.026
U4C U17C G26U G61U	≤ 0.026
U4C U17G G18U A31U	≤ 0.026
U4C U17G G25C G66U U70C G84U	≤ 0.026
U4C U17G U76A C83A	≤ 0.026
U4C U21A A31C G65A G73C C81U	≤ 0.026
U4C U21G C56U U63C G65A	≤ 0.026
U4C U21G G61C	≤ 0.026

Variant	nonsense suppression
U4C U22C C56A C79A A87U A89C	≤ 0.026
U4C U22G G26U G73C G78C	≤ 0.026
U4C U35G G61A G78A C83A G86C	≤ 0.026
U4C U55A	≤ 0.026
U4C U58G G59U	≤ 0.026
U4C U63C U71A	≤ 0.026
U4C U63G	0.0946
U4C U70G	≤ 0.026
U4C U71C C81A A89C	≤ 0.026
U4G A9U A31C U63G	≤ 0.026
U4G A9U U17G G65A G73A	≤ 0.026
U4G A13C U35G G61A A74C C80G	≤ 0.026
U4G A13G U16C	0.0797
U4G A13U	0.191
U4G A13U C29A	≤ 0.026
U4G A13U C79A	≤ 0.026
U4G A14C C29U U57C A60U	≤ 0.026
U4G A14G C79G	≤ 0.026
U4G A23C G32U G59C	≤ 0.026
U4G A23G G26C	≤ 0.026
U4G A23U	≤ 0.026
U4G A24G C27U A89C	≤ 0.026
U4G A24G C77U	≤ 0.026
U4G A24G G28C U57A C64U	≤ 0.026

Variant	nonsense suppression
U4G A24U A54G C56G	≤ 0.026
U4G A30C U70A C82U	≤ 0.026
U4G A30U C72A	≤ 0.026
U4G A30U G67U C75U G88C A89G	≤ 0.026
U4G A31G G67U C80A	≤ 0.026
U4G A31G G73A	≤ 0.026
U4G A31G U63C	≤ 0.026
U4G A31U	0.0387
U4G A33G G73U	≤ 0.026
U4G A33U U57A G69A U76A	≤ 0.026
U4G A54C	≤ 0.026
U4G A54C C56U	≤ 0.026
U4G A54C U58A A74C	≤ 0.026
U4G A54U	0.469
U4G A54U C72U C82G G86A	≤ 0.026
U4G A54U C77G	≤ 0.026
U4G A60G U71C C72A G73C C79A	≤ 0.026
U4G A60U G65C	≤ 0.026
U4G C5G U17C U63C A74U	≤ 0.026
U4G C5U C27G	≤ 0.026
U4G C5U G15C C34U G73U	≤ 0.026
U4G C5U G65U C79U G84C	≤ 0.026
U4G C5U U22C U55A U76G	≤ 0.026
